Laboratory results reported in the BET-seq Pho4 binding data (Le et al. 2018).
The other results are listed elsewhere or left out. Values were computed here from the reads of four pooled replicates and scatter widely.

biological target: T1, Pho4 (S. cerevisiae) (UniProt P07270); assay: relative binding free energy (BET-seq); higher = weaker binding; conditions: reference: library average
T1 sequence: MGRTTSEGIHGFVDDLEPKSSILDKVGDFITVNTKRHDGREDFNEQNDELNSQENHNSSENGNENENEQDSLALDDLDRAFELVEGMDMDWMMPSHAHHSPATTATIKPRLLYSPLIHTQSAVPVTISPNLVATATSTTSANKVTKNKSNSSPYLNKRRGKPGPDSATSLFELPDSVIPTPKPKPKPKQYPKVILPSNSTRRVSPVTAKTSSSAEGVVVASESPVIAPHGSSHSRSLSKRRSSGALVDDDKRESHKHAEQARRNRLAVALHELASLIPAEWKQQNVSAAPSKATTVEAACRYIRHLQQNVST

| Sequence | relative binding free energy [kcal/mol] |
| --- | --- |
| GGTTTCACGTGTTGAG | 0.15 |
| TGGATCACGTGGGTCG | 0.03 |
| GTGCACACGTGGTTTG | 0.02 |
| TAGAGCACGTGTTAAT | -0.12 |
| GTTTACACGTGTATCG | 0.2 |
| GAGATCACGTGTGTTG | 0.28 |
| GGCTGCACGTGTGTTG | 0.03 |
| AGTGGCACGTGGTTCA | -0.15 |
| CAGGTCACGTGTGGGG | 0.05 |
| TGTCTCACGTGATTTG | 0.22 |
| GAAAGCACGTGGGGTT | -0.15 |
| GGTTTCACGTGCGGTA | 0.23 |
| TGCATCACGTGGTTCT | 0.18 |
| GGGAGCACGTGTCCGG | -0.19 |
| CGGATCACGTGTTGGA | 0.12 |
| TTTTTCACGTGTTTCG | 0.43 |
| TATTTCACGTGTGGTA | 0.33 |
| AGTTGCACGTGGATCG | 0.1 |
| AGGTGCACGTGAGTGT | 0.19 |
| GGCGGCACGTGGTTGA | -0.11 |
| ATTGACACGTGCGGTT | -0.06 |
| AGGTTCACGTGTAGCA | 0.31 |
| TGTTACACGTGGAATT | 0.16 |

| Sequence | relative binding free energy [kcal/mol] |
| --- | --- |
| AGTGGCACGTGTGGCT | -0.12 |
| GCAGTCACGTGTCGTT | 0.31 |
| GTTAGCACGTGCAGTG | 0.01 |
| TATGACACGTGAGGTG | 0.03 |
| TTTGGCACGTGAATCG | 0.17 |
| AAGGCCACGTGGGGTT | -0.21 |
| CCTTTCACGTGAGGTT | 0.25 |
| ATGGTCACGTGTACGG | 0.18 |
| GCGGCCACGTGTGGTG | -0.02 |
| ATTGGCACGTGCGGCT | -0.25 |
| TTTTGCACGTGTTCAG | 0.05 |
| AGTGGCACGTGTATTC | -0.01 |
| GAAGGCACGTGTAGTG | 0.05 |
| AACGACACGTGTGGTT | 0.22 |
| AAGTACACGTGGGGAG | -0.12 |
| TAATGCACGTGCGCGG | -0.22 |
| CTATGCACGTGGGTTA | -0.22 |
| CGTTCCACGTGTTGTT | 0.11 |
| ATGTGCACGTGGCATA | -0.17 |
| GAAGGCACGTGGAGTA | -0.09 |
| TTAAGCACGTGGTTGC | -0.24 |
| TTAGCCACGTGTCGTG | -0.11 |
| TGGGACACGTGGGAAC | 0.05 |

| Sequence | relative binding free energy [kcal/mol] |
| --- | --- |
| ATTTTCACGTGAAGAT | 0.36 |
| TGACACACGTGTGGTT | 0 |
| GTCCGCACGTGATGGT | 0.21 |
| TGTATCACGTGATAGT | 0.3 |
| CGATGCACGTGGGTGT | -0.27 |
| GAGGGCACGTGAATAT | 0.34 |
| GTCGGCACGTGCTTGT | -0.07 |
| GGAGTCACGTGGAGCG | 0.17 |
| CTGTTCACGTGTTTAT | 0.22 |
| ATTGCCACGTGGTGTG | -0.21 |
| CTGTGCACGTGGGGAG | -0.12 |
| TGGGCCACGTGTGTTG | -0.07 |
| TGGGTCACGTGACGAA | 0.09 |
| GATTTCACGTGAAGGG | 0.45 |
| ACAGGCACGTGTTAGT | -0.13 |
| TTCGTCACGTGGGGGA | -0.05 |
| CGGTTCACGTGGTTCA | 0.19 |
| TTATGCACGTGTTCTG | -0.11 |
| TTGTACACGTGAAGGC | 0.33 |
| TTGTACACGTGATTTC | 0.17 |
| TAGGACACGTGCCGGG | -0.06 |
| AACGTCACGTGATGTT | 0.16 |
| TCAGACACGTGATGAG | 0.3 |

| Sequence | relative binding free energy [kcal/mol] |
| --- | --- |
| GTTCTCACGTGAAGGT | 0.42 |
| AGGAACACGTGGGGGT | -0.05 |
| TGGAACACGTGAGTGG | 0.11 |
| TTAGCCACGTGGTGGG | -0.15 |
| GGCTGCACGTGGGTGC | -0.12 |
| TACATCACGTGTTTAT | 0.1 |
| ATTGGCACGTGCAGGT | -0.11 |
| AGTTGCACGTGATGGA | 0.14 |
| TAGGACACGTGAAGAG | 0.4 |
| GATTGCACGTGTTCAG | 0.12 |
| TGGGACACGTGGAACG | 0.02 |
| GTGCACACGTGGTGGC | -0.09 |
| GATGACACGTGTGGGA | 0.19 |
| GTCTACACGTGATTTT | 0.26 |
| CCGTGCACGTGTAGGG | -0.16 |
| ATTTTCACGTGCTATT | 0.11 |
| GGGTTCACGTGCAATA | 0.53 |
| AAGATCACGTGTGGTA | 0.14 |
| ATATACACGTGGAATT | 0.2 |
| TAGGGCACGTGGCTAG | -0.16 |
| GTGGGCACGTGATCAG | -0.05 |
| GGGCCCACGTGTATGG | -0.03 |
| GGGAGCACGTGGGGGG | -0.19 |

| Sequence | relative binding free energy [kcal/mol] |
| --- | --- |
| GATTTCACGTGACGTT | 0.45 |
| TGTTCCACGTGGCTGT | 0 |
| TGTTTCACGTGTCAAA | 0.15 |
| TTCAGCACGTGTGGGA | -0.19 |
| TTAAACACGTGTACTG | 0.12 |
| GGTTGCACGTGACTGT | 0.04 |
| ATAGGCACGTGATAAT | -0.04 |
| TTGGACACGTGCATGG | -0.11 |
| TTGAGCACGTGTCGTT | 0.08 |
| AATGTCACGTGCGGTG | 0.03 |
| GGTGTCACGTGTTACT | 0.16 |
| AAGGGCACGTGCGCGT | -0.39 |
| GGTTTCACGTGTCAAT | 0.42 |
| GGGATCACGTGCGTGG | 0.15 |
| GTTGACACGTGATTAG | 0.04 |
| GGATGCACGTGTTCGT | 0.08 |
| GTTTTCACGTGTTACG | 0.28 |
| GATATCACGTGGGAGC | 0.2 |
| ATGGACACGTGTGCTG | -0.08 |
| AGGCGCACGTGTAGGC | -0.09 |
| TTTTGCACGTGCGTTG | -0.13 |
| AATGCCACGTGGTTGG | -0.16 |
| GAATGCACGTGTTGTG | 0.12 |
